Measurements published in article PMC12040169 (PLOS Biology, 2025).
Read-outs that look alike come from different tables or passages of the source. This is one part of the list.

Test system: T1, C. trachomatis L2/434/Bu expressing GFP (CTL2-GFP)
T1 construct: L2/434/Bu GFP intracellular growth in HeLa cells
Parameters: species or system HeLa; C. trachomatis total inclusion area by high-content imaging, normalised to DMSO
Outline: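 High-content imaging followed the bulk GFP/resorufin measurement: fixed, Hoechst-stained cells were scored for GFP inclusions and host nuclei per well. Total inclusion area and count served as growth proxies, nuclei number as the viability proxy. MIC calculation matched the bulk assay.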

[1] = total inclusion area; 28.5 h, 10 µM; inhibitor

Row | SMILES | % of control remaining [1] | % of control remaining (total inclusion area, 28.5 h, 10 µM, inhibitor)
1 | CC(C)N(C(=O)N1CCC(c2cccnc2)CC1)C(C)C [CBK283850] | 95.4272 | –
2 | CC(=O)N1CCN(c2ccccc2NC(=O)c2ccc(OCc3ccccc3)cc2)CC1 [CBK269775] | 95.88 | –
3 | COc1cccc(NC(=O)CN2CCN(c3nc4ccc([N+](=O)[O-])cc4s3)CC2)c1 [CBK264089] | 97.2932 | –
4 | CCC(=O)c1c(-c2ccccc2)nc2n(C)c3ccccc3n12 [CBK262488] | 43.8215 | –
5 | CN(C)CCOC(=O)C1CCCCCN1C (stereo not shown) [CBK278175G] | 104.346 | –
6 | Cc1nc(N(C)C)ncc1C(=O)NCCSc1nnnn1C [CBK306673] | 96.5259 | –
7 | CN(C)c1ccc([N+](=O)[O-])cc1/C=N/NC(=O)CCc1ccccc1O [CBK263257] | 96.3515 | –
8 | Nc1ncnc2c1nc(Br)n2[C@H]1C[C@@H](O)[C@@H](CO)O1 [CBK201240] | 83.8419 | –
9 | CC(C)Cn1cncc1CNC(=O)Nc1ccc2[nH]nnc2c1 [CBK306549] | 73.2352 | –
10 | O=c1cc(N2CCOCC2)oc2cccc(O)c12 [CBK016536] | 53.685 | –
11 | COc1ccc2c(c1)CCN(C(=O)C1CCc3nn(C)c(=O)n3C1)C2 (stereo not shown) [CBK307613] | 90.7904 | –
12 | Cc1nc2c(c(=O)[nH]1)CN(Cc1ccc(F)cc1)CC2 [CBK284009] | 90.193 | –
13 | CCN(C)S(=O)(=O)c1ccc(Cl)c(Cl)c1 [CBK045392] | 121.389 | –
14 | O=S(=O)(NCC(c1ccccc1)N1CCNCC1)c1ccccc1 (stereo not shown) [CBK262813] | 89.8524 | –
15 | O=C(c1cc(CC2(NCc3ccc(F)cc3)COC2)no1)N1CCCCC1 [CBK289657] | 116.696 | –
16 | COc1ccc(OC)c(NC(=O)CSc2nnc(-c3cccnc3)s2)c1 [CBK269043] | 98.6259 | –
17 | CC(C)N1CCC(=NNC(=O)C(O)c2ccccc2)CC1 (stereo not shown) [CBK019361] | 110.032 | –
18 | Cc1sc(NC(=O)c2ccc(F)cc2Cl)c(C(=O)NCc2cccnc2)c1C [CBK270319] | 98.2867 | –
19 | O=C1NC(=O)C2(CCN(C(=O)c3csc4c3CCCC4)C2)N1 (stereo not shown) [CBK305533] | 62.281 | –
20 | CCOc1ccc(C(C)(CC(N)=O)C(=O)O)cc1 (stereo not shown) [CBK286778] | 99.2779 | –
21 | O=C(N[C@@H]1CNCCC[C@H]1O)c1ccc(OCc2ccccc2)cc1 [CBK289064] | 106.841 | –

Row | SMILES | % of control remaining [1] | % of control remaining (total inclusion area, 28.5 h, 10 µM, inhibitor)
22 | CN1CCC[C@H]1c1nc(-c2ccnc(NS(C)(=O)=O)c2)no1 [CBK288884] | 104.021 | –
23 | OCc1cccc(-c2cc(NCc3ccccc3)n3nccc3n2)c1 [CBK037113] | 66.3753 | –
24 | COc1ccc2[nH]cc(CCNC(=O)c3ccco3)c2c1 [CBK116204] | 71.2725 | –
25 | O=C1NC2(CCN(C(=O)C3CCCC3)CC2)Nc2ccccc21 [CBK283962] | 77.6842 | –
26 | O=S(=O)(N1CCCCCC1)N1CCNCC1 [CBK269219C] | 94.5221 | –
27 | CCc1c(C)nn(-c2ccccc2Cl)c1-c1ccccc1 [CBK016736] | 116.432 | –
28 | CC(C)(Oc1ccc(Cl)cc1)C(=O)Nc1ccc(CN2C(=O)CNC2=O)cc1 [CBK296668] | 90.5117 | –
29 | CC(Sc1nncs1)C(=O)N1CCCc2ccccc21 (stereo not shown) [CBK304871] | 90.8106 | –
30 | Cc1sc2nc(SCC(=O)NCCO)nc(N)c2c1C [CBK264423] | 112.321 | –
31 | COc1ccc2[nH]cc(/C=C3\C(=O)Nc4ncccc43)c2c1 [CBK017826] | 99.9405 | –
32 | CCC(NC1CCc2nc(C)cn2C1)c1ccccc1O (stereo not shown) [CBK306012] | 13.6193 | –
33 | N/C(=N\OC(=O)COc1cccc2ccccc12)c1ccccn1 [CBK262999] | 88.0535 | –
34 | O=C(CCN1CCOCC1)Nc1ccc(Br)cc1C(=O)c1ccccc1 [CBK263165] | 99.7154 | –
35 | Cc1c(C(C)N)cnn1-c1ccc(C#N)cc1 (stereo not shown) [CBK305869] | 29.1901 | –
36 | COc1cccc(C(=O)NCC(c2cccs2)N2CCOCC2)c1 (stereo not shown) [CBK305075] | 62.7471 | –
37 | CN(C)c1nc(Oc2ccc(OCCOc3ccccc3)nn2)nc(N(C)C)n1 [CBK264976] | 91.5176 | –
38 | C/C(=N\N=C1/NC(=O)C(CC(=O)O)S1)c1ccc(CC(C)C)cc1 (stereo not shown) [CBK006661] | 81.6736 | –
39 | COc1cc(NC(=O)C(C)Oc2ccc(Cl)cc2C)c(C(=O)O)cc1OC (stereo not shown) [CBK266430] | 91.7475 | –
40 | CC(SCc1ccccc1)C(=O)NCc1ccnc(OCC(F)(F)F)c1 (stereo not shown) [CBK298325] | 92.9868 | –
41 | O=[N+]([O-])c1cc([N+](=O)[O-])c2cccnc2c1NNc1nncc2ccccc12 [CBK110409] | 39.1065 | –
42 | CN(C)C(=O)CN1N=C(C(C)(C)C)Cn2c(cc3ccccc32)C1=O [CBK284210] | 62.9108 | –

Row | SMILES | % of control remaining [1] | % of control remaining (total inclusion area, 28.5 h, 10 µM, inhibitor)
43 | N#Cc1ccc(CNC2(Cc3cc(CO)on3)COC2)cc1 [CBK289647] | 112.994 | –
44 | COC(=O)CCc1ccc(S(=O)(=O)N2CCCN(Cc3c[nH]c(=O)[nH]c3=O)CC2)cc1 [CBK063082] | 71.8009 | –
45 | N#Cc1ccc(CN2CCCCC2c2[nH]ncc2C(N)=O)c(Cl)c1 (stereo not shown) [CBK304261] | 49.5545 | –
46 | Cc1cccc(CN2CCC(NC(=O)c3cn(C(C)(C)C)nn3)CC2)c1 [CBK305927] | 23.6729 | –
47 | c1ccc(-c2csc3ncnc(-n4cnc5ccccc54)c23)cc1 [CBK264494] | 94.2758 | –
48 | Nc1nnc(Sc2nccc(C(F)(F)F)n2)s1 [CBK020023] | 85.7776 | –
49 | Cc1ccc(C(=O)NC(=S)Nc2ccc(C(=O)O)c(Cl)c2)cc1Cl [CBK265068] | 102.636 | –
50 | O=C(O)CCC(=O)N1CCN(C2CCCCC2)CC1 [CBK286918] | 93.2235 | –
51 | CN(C)c1cccc(-c2cc(NC3CCCCC3)ncn2)c1 [CBK090900] | 93.8021 | –
52 | Cc1cc(C)nc(SCc2nc(N)nc(-c3ccccc3O)n2)n1 [CBK266725] | 115.48 | –
53 | Cc1cccn2c(=O)c(/C=C3\SC(=S)NC3=O)c(NCCCN3CCOCC3)nc12 [CBK264904] | 105.16 | –
54 | O=C(NCCc1noc(CO)n1)N(Cc1ccsc1)C1CCCCC1 [CBK307273] | 78.5447 | –
55 | O=C(Cc1c[nH]c2ccccc12)N1CCC2(CCN(C(=O)CC3CCCCC3)C2)C1 (stereo not shown) [CBK131422] | 80.3276 | –
56 | O=C(Nc1cccc(-c2nc3ncccc3o2)c1)c1ccc(OCc2ccccc2)cc1 [CBK263139] | 95.6174 | –
57 | CC1=C[C@@H](CO)[C@H](C(C)C)C[C@H]1Cc1nnc(-c2ccc(N(C)C)cc2)o1 [CBK289224] | 20.6104 | –
58 | COC(=O)CNC(=O)c1ccc(S(=O)(=O)N2CCCC2)cc1 [CBK264880] | 113.425 | –
59 | CCCc1nnc([C@H]2CCN(Cc3ccc(S(C)(=O)=O)cc3)C2)o1 [CBK289402] | 93.2974 | –
60 | Nc1ncc(-c2cccc3ccccc23)nc1NC1CCCCC1 [CBK063588] | 91.1914 | –
61 | CC1=CC(C)C(C(=O)O)C(C(=O)N2CCN(C)CC2)C1 (stereo not shown) [CBK027311] | – | 83.0906
62 | COc1cc(C)ccc1S(=O)(=O)n1cnc2cc(C)c(C)cc21 [CBK287580] | 74.2494 | –
63 | O=C(Nc1cccnc1)c1ncoc1-c1ccc(F)cc1 [CBK104357] | 95.9877 | –

Row | SMILES | % of control remaining [1] | % of control remaining (total inclusion area, 28.5 h, 10 µM, inhibitor)
64 | CCN(CC)CCNC(=O)N(CC)Cc1ccncc1 [CBK155151] | 95.9709 | –
65 | Cn1cc(C2CCCCCN2C(=O)c2ccc(F)cc2)cn1 (stereo not shown) [CBK284913] | 109.372 | –
66 | CCC(CNC(=O)c1coc(COc2ccc3sc(C)nc3c2)n1)OC (stereo not shown) [CBK307248] | 66.1227 | –
67 | COc1ccc(-c2ccc(CCC(=O)O)n2Cc2ccco2)cc1 [CBK265945] | 71.3326 | –
68 | CC1(C)C[C@H](NC(=O)C2CC2)[C@@]2(CCC(=O)N3CCCC3)CC[C@](C)(O)C[C@@H]12 [CBK289044] | 107.864 | –
69 | Cc1nnc2sc(-c3ccncc3)nn12 [CBK269553] | 88.0437 | –
70 | Cc1cc(C)n(CCCC(=O)NCCc2cn3ccccc3n2)n1 [CBK304414] | 93.8685 | –
71 | Cc1nc(C2CC(O)C2)cc(N2CCC(C(=O)N3CCOCC3)CC2)n1 (stereo not shown) [CBK307675] | 19.8786 | –
72 | O=C(NCCOc1ccccc1)N1CCN(c2ccc(F)cc2)CC1 [CBK156416] | 102.072 | –
73 | COC(=O)c1cc(S(N)(=O)=O)c(C)o1 [CBK113185] | 95.3842 | –
74 | CCOC(=O)c1c(NC(=O)CSc2nc[nH]n2)sc2c1CCCCC2 [CBK267231] | 92.4981 | –
75 | CN(C)S(=O)(=O)N(CC(=O)N1CCN(Cc2ccc3c(c2)OCO3)CC1)c1ccccc1 [CBK267994] | 65.0959 | –
76 | O=C(NCCN1CCOCC1)c1cc(-c2ccccc2)on1 [CBK267479] | 104.646 | –
77 | [2H]C(C(=O)NCc1ccc2c(c1)CCC2)n1cc(-c2ccc(CN3CCC(C)CC3)cc2)nn1 (stereo not shown) [CBK166081-L1] | 51.4357 | –
78 | O=C(C1CCOCC1)N1CCCC(c2cc3cccnc3[nH]2)C1 (stereo not shown) [CBK284941] | 87.662 | –
79 | O=C(c1cccnc1)C1CCN(C(=O)Cc2ccsc2)CC1 [CBK283517] | 76.4059 | –
80 | Cc1cccc(C(=O)N2CCC(N(C)Cc3ccc(-c4ccc(S(C)(=O)=O)cc4)nc3)CC2)n1 [CBK165937T] | 77.0706 | –
81 | COCCCn1c(CCC(=O)O)ccc1-c1ccc(Br)cc1 [CBK268015] | 100.705 | –
82 | CCc1ccccc1OCC(=O)Nc1ccc([N+](=O)[O-])cc1OC [CBK265665] | 96.9309 | –
